These are yes or no findings as the source states them, for the method shown. In cells and extracts the contact can be indirect. Some binding calls cover weakened binding; strength is not graded here. Blank lines part the entries; values can stand above or below the molecule they belong to.
How the values were obtained:
[1] = biological target: HA-tagged PP2Ac (protein phosphatase 2A catalytic C subunit, wild type) (UniProt P67775); test: co-IP; total MDCK cell lysates in buffer 2 (10 mM Tris pH 7.4, 150 mM NaCl, 1% NP-40, 0.5% sodium deoxycholate, 0.5 μM OA, protease and phosphatase inhibitors), immunoprecipitated overnight at 4°C with anti-HA antibody coupled magnetic beads, washed 5 times; Western blot for endogenous ZO-1, occludin, Par3, aPKCζ; cells transfected with WTC, L309Δ or empty vector
[2] = biological target: HA-tagged L309Δ PP2Ac mutant (UniProt P67775); test: as above
[3] = biological target: myc-tagged Par3 (Par3^WT) (UniProt Q9Z340); test: co-IP; total lysates (buffer 2) of MDCK cells stably expressing myc-Par3 and transfected with WTC, L309Δ or empty vector, immunoprecipitated overnight at 4°C with anti-myc antibody coupled magnetic beads; Western blot for HA-PP2Ac

The chains behind the UniProt entries cited, without tags or fusion partners. Where a name states a change or a piece, a line headed by the entry shows the natural chain unless it says otherwise.
UniProt P67775: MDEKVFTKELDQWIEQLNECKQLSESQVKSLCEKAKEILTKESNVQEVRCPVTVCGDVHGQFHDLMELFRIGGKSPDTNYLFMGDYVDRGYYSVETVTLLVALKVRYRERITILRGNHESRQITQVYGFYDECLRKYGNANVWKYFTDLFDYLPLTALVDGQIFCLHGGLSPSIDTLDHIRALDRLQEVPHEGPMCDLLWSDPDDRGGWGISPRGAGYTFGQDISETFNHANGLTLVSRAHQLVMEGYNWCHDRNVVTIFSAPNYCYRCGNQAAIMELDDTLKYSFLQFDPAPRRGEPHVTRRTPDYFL
UniProt Q9Z340: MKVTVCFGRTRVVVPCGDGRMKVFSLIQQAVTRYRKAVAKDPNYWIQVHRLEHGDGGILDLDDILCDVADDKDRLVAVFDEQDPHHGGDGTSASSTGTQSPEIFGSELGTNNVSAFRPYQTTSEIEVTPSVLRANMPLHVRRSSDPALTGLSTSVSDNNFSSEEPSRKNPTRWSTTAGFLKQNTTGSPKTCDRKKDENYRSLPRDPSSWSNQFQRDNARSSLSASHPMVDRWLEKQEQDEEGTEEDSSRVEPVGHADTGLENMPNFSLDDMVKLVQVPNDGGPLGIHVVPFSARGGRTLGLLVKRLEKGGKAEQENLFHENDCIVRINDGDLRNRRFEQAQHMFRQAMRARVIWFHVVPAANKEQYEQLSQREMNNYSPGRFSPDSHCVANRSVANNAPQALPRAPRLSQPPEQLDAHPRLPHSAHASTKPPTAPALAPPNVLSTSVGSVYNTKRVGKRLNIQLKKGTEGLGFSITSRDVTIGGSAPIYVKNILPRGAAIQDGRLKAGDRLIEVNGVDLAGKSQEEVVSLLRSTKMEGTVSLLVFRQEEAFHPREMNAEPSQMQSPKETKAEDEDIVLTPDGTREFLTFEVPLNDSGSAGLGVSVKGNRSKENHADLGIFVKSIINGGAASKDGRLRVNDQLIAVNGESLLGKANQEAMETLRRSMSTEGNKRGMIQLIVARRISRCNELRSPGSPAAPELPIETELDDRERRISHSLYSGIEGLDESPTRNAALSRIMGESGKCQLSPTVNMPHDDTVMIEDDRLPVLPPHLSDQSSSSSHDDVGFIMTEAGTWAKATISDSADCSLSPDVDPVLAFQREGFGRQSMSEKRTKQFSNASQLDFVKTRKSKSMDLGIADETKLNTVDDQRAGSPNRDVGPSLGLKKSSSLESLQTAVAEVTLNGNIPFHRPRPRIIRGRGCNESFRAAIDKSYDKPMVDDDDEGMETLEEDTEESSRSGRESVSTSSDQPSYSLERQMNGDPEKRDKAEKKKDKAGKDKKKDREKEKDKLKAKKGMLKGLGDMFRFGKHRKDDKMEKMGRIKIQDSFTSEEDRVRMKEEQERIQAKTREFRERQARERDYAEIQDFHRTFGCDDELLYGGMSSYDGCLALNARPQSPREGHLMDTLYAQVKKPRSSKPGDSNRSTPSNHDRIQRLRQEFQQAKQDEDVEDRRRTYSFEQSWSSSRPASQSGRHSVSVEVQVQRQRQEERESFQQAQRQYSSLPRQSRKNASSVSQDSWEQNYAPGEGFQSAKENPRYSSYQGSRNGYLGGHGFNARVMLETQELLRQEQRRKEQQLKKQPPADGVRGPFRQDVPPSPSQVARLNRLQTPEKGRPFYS
UniProt O97758: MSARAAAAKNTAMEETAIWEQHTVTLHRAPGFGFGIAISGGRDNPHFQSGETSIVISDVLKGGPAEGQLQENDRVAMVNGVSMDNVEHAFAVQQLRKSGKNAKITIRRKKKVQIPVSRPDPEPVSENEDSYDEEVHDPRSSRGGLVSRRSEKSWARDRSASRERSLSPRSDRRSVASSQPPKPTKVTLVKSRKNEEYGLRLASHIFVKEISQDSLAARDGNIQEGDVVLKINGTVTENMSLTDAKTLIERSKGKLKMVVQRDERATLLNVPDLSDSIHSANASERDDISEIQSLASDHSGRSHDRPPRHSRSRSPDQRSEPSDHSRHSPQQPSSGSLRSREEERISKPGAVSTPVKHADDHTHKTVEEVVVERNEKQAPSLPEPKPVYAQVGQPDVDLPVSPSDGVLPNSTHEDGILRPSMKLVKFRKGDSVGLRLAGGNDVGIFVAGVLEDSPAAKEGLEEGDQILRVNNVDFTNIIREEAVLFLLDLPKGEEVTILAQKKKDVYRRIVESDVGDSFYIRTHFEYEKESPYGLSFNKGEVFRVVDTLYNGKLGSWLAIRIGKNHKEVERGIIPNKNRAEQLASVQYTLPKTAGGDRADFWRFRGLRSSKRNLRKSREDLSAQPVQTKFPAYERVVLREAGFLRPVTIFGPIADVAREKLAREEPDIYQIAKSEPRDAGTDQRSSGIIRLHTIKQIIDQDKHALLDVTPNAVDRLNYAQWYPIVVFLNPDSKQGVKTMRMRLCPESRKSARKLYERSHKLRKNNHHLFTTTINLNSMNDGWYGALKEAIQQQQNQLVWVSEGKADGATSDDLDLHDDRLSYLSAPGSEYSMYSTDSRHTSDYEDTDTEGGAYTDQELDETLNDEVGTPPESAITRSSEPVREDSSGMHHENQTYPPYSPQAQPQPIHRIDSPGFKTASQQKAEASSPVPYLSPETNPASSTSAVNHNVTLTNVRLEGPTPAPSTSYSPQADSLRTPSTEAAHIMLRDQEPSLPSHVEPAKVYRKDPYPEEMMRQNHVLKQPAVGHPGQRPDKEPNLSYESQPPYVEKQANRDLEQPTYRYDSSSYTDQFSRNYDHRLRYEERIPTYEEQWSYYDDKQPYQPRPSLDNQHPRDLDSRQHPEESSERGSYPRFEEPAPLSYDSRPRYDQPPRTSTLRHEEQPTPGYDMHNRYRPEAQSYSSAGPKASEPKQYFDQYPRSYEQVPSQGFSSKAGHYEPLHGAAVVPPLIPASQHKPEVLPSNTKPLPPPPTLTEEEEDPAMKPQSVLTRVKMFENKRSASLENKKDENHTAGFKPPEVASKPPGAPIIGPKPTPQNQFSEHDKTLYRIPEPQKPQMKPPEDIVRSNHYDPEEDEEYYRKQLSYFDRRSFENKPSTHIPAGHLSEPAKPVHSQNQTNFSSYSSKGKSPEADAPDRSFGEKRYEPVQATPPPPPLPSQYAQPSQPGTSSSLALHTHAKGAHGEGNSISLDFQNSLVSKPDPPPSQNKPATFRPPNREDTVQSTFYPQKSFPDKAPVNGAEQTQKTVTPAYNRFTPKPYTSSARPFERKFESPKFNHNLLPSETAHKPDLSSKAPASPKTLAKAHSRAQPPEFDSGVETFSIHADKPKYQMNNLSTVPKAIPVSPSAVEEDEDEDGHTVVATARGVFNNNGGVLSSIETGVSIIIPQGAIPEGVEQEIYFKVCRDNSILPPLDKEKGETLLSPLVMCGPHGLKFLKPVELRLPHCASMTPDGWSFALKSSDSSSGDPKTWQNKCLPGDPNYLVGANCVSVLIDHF

- binding [1]: binds
- binding [2]: no binding
Molecule: ZO-1 (zonula occludens protein 1) (from UniProt O97758 1-1769)

- binding [3]: binds
Molecule: HA-tagged PP2Ac (protein phosphatase 2A catalytic C subunit, wild type) (from UniProt P67775 1-309) (enzyme)

- binding [3]: no binding
Molecule: HA-tagged L309Δ PP2Ac mutant (from UniProt P67775 1-309) (enzyme)

- binding [1]: binds
- binding [2]: no binding
B1: occludin (protein, UniProt Q28269 1-521)
chain: MSSRPFESPPPYRPDEFKPNHYAPSNDVYGGDMHVRPMLSQPAYSFYPEDEILHFYKWTSPPGVIRILSMLVIVMCIAIFGCVASTLAWDRGYGTGLMGGSIGYPYGSGFGSYGTGYGYGFGYGYGYGGYTDPRAAKGFLLAMVAFCFIAALVIFVTSVIRSDISRTRRYYLTVIILSAFLGVMMFIATIVYIMGVNPTAQASGSLYSSQIYAMCNQFYASTATGLYMDQYLYHYCVVDPQEAIAIVLGFMVIVAFALIIFFAVKTRRKMDRYDKSNILWDKEHIYDEQPPNVEEWVKNVSAGTQDMPPPPSDYVERVDSPMAYSSNGKVNDKRLYPESSYKSTPVPEVVQELPATSPADDFRQPRYSSSGHLEPPSKRAPSKGRTGRPKRLEQDHYETDYTTGGESCDELEEDWIREYPPITSDQQRQLYKRNFDTGLQEYKSLQAELDEINKELSRLDKELDDYREESEEYMAAADEYNRLKQVKGSPDYKNKRNYCKQLKSKLSHIKKMVGDYDRQKT
